This is one part of the list.
What follows are sequences tested against T1, OsWOX13 (Oryza sativa, UniProt Q5QMM3 1-267) (assay: protein-binding microarray (RPBM); PBS, 2% BSA, 51.3 ng/ul salmon testes DNA, 50 uM zinc acetate, 200 nM TF, 25 C, 1 h; high values mean tight binding). Settings: protein: recombinant; tags: N-terminal polyhistidine and DsRed monomer fusion (pET32a); label: CyDye5-dUTP incorporated in the synthesized complementary strand; 3' TTTTT single-stranded linker to array surface; dsDNA, one strand shown.
T1 sequence: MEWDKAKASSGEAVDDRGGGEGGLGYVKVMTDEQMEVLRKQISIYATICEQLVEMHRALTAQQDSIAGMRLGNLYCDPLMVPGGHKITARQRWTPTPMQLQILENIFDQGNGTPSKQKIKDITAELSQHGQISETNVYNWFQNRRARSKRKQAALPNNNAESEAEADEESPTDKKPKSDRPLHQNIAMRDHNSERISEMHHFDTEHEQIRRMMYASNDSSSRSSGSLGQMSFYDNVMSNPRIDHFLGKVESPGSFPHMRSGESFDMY
How it was run: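 Polyhistidine-tagged DsRed fusions of transcription factors, joined at the N-terminus, were expressed in E. coli BL21-CodonPlus and isolated on Ni–NTA. They were incubated at 200 nM for 1 h at 25 °C on a custom Agilent array, double-stranded and BSA-blocked, in PBS with 2% BSA, salmon testes DNA and 50 µM zinc acetate. The binding signal is per-feature fluorescence intensity (arbitrary units) read on an Axon 4000B scanner after washing.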

Sequence	binding signal
TCCTTGACTGCTTCCTTTCTCTTGTAAAGTAAATGTTAGCCGGAGTCACCTAGTGCAG	17000 fluorescence intensity (a.u.)
GGTTCACCAATCACCAGTAGTGAGCCCATTCTATCTTGTACGGAGTCACCTAGTGCAG	6580 fluorescence intensity (a.u.)
AGCAAATTAATATGGATTACTTCCACTTGCAAAGCTGCAACGGAGTCACCTAGTGCAG	27100 fluorescence intensity (a.u.)
AGTGGTGATGGGCACAATGGTGATTAGAGTGGCGGAGATCCGGAGTCACCTAGTGCAG	7460 fluorescence intensity (a.u.)
ATGTAACTGAGATTGATGTAGTATCAGAGATACAAGAAGACGGAGTCACCTAGTGCAG	15700 fluorescence intensity (a.u.)
ACAAGATTGTTTCAAACATAATTTCAACCCGATGATAAAGCGGAGTCACCTAGTGCAG	12900 fluorescence intensity (a.u.)
CTGTAACATTCAATGATTTCCTATGGGCATTCGGCATACTCGGAGTCACCTAGTGCAG	10400 fluorescence intensity (a.u.)
CCAAGAGGAGTAATTTGATTGGCTAAGGCAGAGAATAGAGCGGAGTCACCTAGTGCAG	28100 fluorescence intensity (a.u.)
AGGATTAGCAATATATTTATGATGTCATCAGGGCTAGTGACGGAGTCACCTAGTGCAG	4170 fluorescence intensity (a.u.)
TGAAATTAGTATTGAAAATCAATTTCGGGATTTATTTTATCGGAGTCACCTAGTGCAG	3260 fluorescence intensity (a.u.)
ATGTGAGAAATAAATTAGCGAGCAAATTTTATGGACTTGTCGGAGTCACCTAGTGCAG	8500 fluorescence intensity (a.u.)
CCTCTTGTTAATCCCGCAAATTAGCTCTTCAAATTAGGAACGGAGTCACCTAGTGCAG	7800 fluorescence intensity (a.u.)
CCGCTAACTTATCCGTTACCTCGCTCCCATCCCGCTAAACCGGAGTCACCTAGTGCAG	4280 fluorescence intensity (a.u.)
GATTAACACGACATTAATAGGTACAAATTAAAACACTTACCGGAGTCACCTAGTGCAG	15400 fluorescence intensity (a.u.)
ACACTTCAATCAACCACCCAACTCGCACCGCACCGGTTTTCGGAGTCACCTAGTGCAG	14400 fluorescence intensity (a.u.)
TGTCTACGTTTTCCAGATGATTGGTATGAAATTAGTTGTGCGGAGTCACCTAGTGCAG	10800 fluorescence intensity (a.u.)
TCTCAATAATTAATTATGCTCTCTTAAATTTTCTTGAAATCGGAGTCACCTAGTGCAG	15400 fluorescence intensity (a.u.)
ACTTGGTGACGAATCAATCGAAACCCAATTTATCAAATCCCGGAGTCACCTAGTGCAG	4480 fluorescence intensity (a.u.)
AGTCAAATTGCACTGGTTTTAATAATTCTGAGAGTCATCCCGGAGTCACCTAGTGCAG	5390 fluorescence intensity (a.u.)
TAAAATTGACGATATCTTGGGCAAAATCACTGGGCATGGCCGGAGTCACCTAGTGCAG	32200 fluorescence intensity (a.u.)
ACACTAGATCTAGACTGATTTTGTGCATTATAATGTTTTGCGGAGTCACCTAGTGCAG	6580 fluorescence intensity (a.u.)
TTCGTTCATCATCAATCAAAACATGGGACTATAAGGATTTCGGAGTCACCTAGTGCAG	7300 fluorescence intensity (a.u.)
TGTATTGCTAAATTATAGTGTAAATTTTGGTTCCTCGTCCCGGAGTCACCTAGTGCAG	6110 fluorescence intensity (a.u.)

From article PMC7819943, “Rice protein-binding microarrays: a tool to detect cis-acting elements near promoter regions in rice”
